From paper PMC6919601, “Identification of Plasmodium dipeptidyl aminopeptidase allosteric inhibitors by high throughput screening” (PLoS ONE, 2019)
In all, about 110,000 compounds went through this assay and about 230 (0.21%) showed an effect of 50% or more. This is one part of the list.

target: DPAP1 (Plasmodium falciparum, UniProt Q8IIJ9); experiment: primary screen, percent inhibition; read by cleavage of a fluorogenic dipeptide substrate; higher = more effect of the substance; design: species or system P. falciparum D10 trophozoite lysates; single well
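Also: 30 min substrate incubation versus DMSO and 10 µM JCP410 controls.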

DPAP1, sequence (Q8IIJ9 whole entry, looked up): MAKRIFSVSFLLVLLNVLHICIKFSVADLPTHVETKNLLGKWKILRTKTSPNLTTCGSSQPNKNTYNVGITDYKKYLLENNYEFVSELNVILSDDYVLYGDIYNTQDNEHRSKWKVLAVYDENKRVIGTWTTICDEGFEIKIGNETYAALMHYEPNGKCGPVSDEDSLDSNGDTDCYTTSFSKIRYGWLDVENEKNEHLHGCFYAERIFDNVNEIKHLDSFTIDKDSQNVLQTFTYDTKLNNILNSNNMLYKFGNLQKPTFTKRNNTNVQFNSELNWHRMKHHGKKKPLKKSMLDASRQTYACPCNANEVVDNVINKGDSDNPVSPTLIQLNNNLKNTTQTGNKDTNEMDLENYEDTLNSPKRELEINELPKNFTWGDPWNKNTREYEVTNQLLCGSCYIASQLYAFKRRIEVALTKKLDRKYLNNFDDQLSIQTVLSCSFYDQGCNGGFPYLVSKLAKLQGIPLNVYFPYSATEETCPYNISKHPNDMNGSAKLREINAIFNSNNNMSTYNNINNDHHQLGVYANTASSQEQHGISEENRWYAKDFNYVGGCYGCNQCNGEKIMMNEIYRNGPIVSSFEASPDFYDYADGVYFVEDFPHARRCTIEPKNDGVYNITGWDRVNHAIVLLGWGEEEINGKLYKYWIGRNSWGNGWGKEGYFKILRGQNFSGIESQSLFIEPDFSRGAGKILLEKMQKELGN

In order of rising “% Inhibition @ 10 uM” value:
1. Cc1c(C(=O)N2CCC(C(=O)N3CCCCC3)CC2)oc2cc3sc(N(C)C)nc3cc12  -10.5%
2. O=CN1CCN(Cc2cccc(Br)c2)CC1  -9.93%
3. Cc1cc(NC(=O)c2ccc(F)cc2)n(-c2nc3ccccc3[nH]2)n1  -9.11%
4. CCn1c(C)nc2c(CN(C)C)c(O)ccc21  -8.8%
5. CCOC(=O)c1c(NC(C)=O)sc2c(OC)c(Br)ccc12  -8.51%
6. COc1ccccc1OCCCSc1nc(-c2ccccc2)nc2cc(=O)[nH]n12  -8.11%
7. CC[C@@H](C)[C@@H](CS(=O)(=O)N[C@@H](CCc1ccccc1)C(=O)COc1cccc(OC)c1)NC(=O)OCc1ccccc1  -7.36%
8. CC[C@@H](C)[C@H](NC(=O)c1cccc(NC(N)=O)c1)C(=O)N[C@@H](CCc1ccccc1)C(=O)COCc1ccccc1  -7.36%
9. CC1=NC(C(F)(F)F)(C(F)(F)F)N=C(N(C)C)O1  -7.35%
10. O=C(Nc1ccccn1)c1cnn(-c2ccc(Cl)cc2)c1C1CCNCC1  -6.14%
11. CCOc1ccccc1NC(=O)CN(c1cccc(Cl)c1C)S(C)(=O)=O  -5.92%
12. Cc1cc(C)c2c(NC(=O)CN3CCCCC3)c(C)sc2n1  -5.54%
13. Cc1cc(C)c(NC(=O)c2ccc(-c3ccccc3)cc2)c(C)c1  -5.51%
14. COc1ccccc1CNC(=O)c1cc(Cl)ccc1OC  -5%
15. NC(=O)c1cc(S(=O)(=O)N2CCOCC2)cs1  -4.95%
16. COc1ccc(S(=O)(=O)NCc2ccco2)cc1-c1nnc2c3ccccc3c(C)nn12  -4.78%
17. CCCCC(=O)Nc1ccc2c(c1)OCCO2  -4.65%
18. O=C(NC(Cc1ccccc1)c1nc2ccccc2[nH]1)c1ccccc1 (centres unmarked)  -4.23%
19. CCN1C(=O)C(O)(CC(=O)c2ccccn2)c2cc(Br)ccc21 (centres unmarked)  -4.15%
20. O=C(O)/C=C/c1ccc2ccccc2n1  -3.98%
21. c1ccc(N2CCN(c3ccccn3)CC2)nc1  -3.77%
22. CCC(C(=O)NCCc1ccccc1Cl)n1nc(C)c2sc3ccccc3c2c1=O (centres unmarked)  -3.53%
23. CC[n+]1cn(CC(O)COc2ccc(C(C)=O)cc2)c2cc(C)c(C)cc21 (centres unmarked)  -3.41%
24. Cc1ccc(S(=O)(=O)N2CCN(C(c3ccccc3)c3ccccc3)CC2)cc1C  -3.14%
25. CC1CCCCN1C(=O)c1cc(-c2ccc(Cl)c(Cl)c2)on1 (centres unmarked)  -3.12%
26. CCOc1ccc(/C=C2/SC(Nc3cccc(C(=O)O)c3)=NC2=O)cc1OC  -3.09%
27. O=c1c(Br)cccc(Br)c1O  -3.06%
28. COc1ccc(Br)cc1-c1nc(C)c(C(C)=O)n1O  -2.9%
29. Cc1nn(CC(=O)N2CCC3(CC2)OCCO3)c2ccccc12  -2.88%
30. CCN(CC)c1ccc(C2C3=C(O)CC(C)(C)CC3=NC(C)=C2C(=O)Nc2cccc(C)n2)cc1 (centres unmarked)  -2.53%
31. CCOc1ccc(C2C(C(=O)NC)=C(C)Nc3nc4ccccc4n32)cc1 (centres unmarked)  -2.5%
32. CCOC(=O)NC(=O)CSc1nc(C)cc(C)c1C#N  -2.14%
33. COCc1cc(C)nc2sc(C(=O)Nc3nccs3)c(N)c12  -1.92%
34. COc1ccc(NS(=O)(=O)c2ccc(NC(=O)C(F)(F)F)cc2)cc1  -1.88%
35. CC(CNC(=O)C1CCCN(C(=O)c2cc3sccc3n2C)C1)c1ccccc1 (centres unmarked)  -1.53%
36. Cc1ccc(C)c(Cn2c(C(=O)O)c(CNCc3ccc(Cl)cc3)c3ccccc32)c1  -1.44%
37. CN1C(=O)/C(=C2\SC(Nc3ccc(Br)cc3)=NC2=O)c2ccccc21  -1.36%
38. CC1CCCN(c2nc3c(-c4cccc(Br)c4)nnn3c3ccccc23)C1 (centres unmarked)  -1.21%
39. Cc1occc1C(=O)Nc1ccc(N(C)C)cc1  -1.2%
40. CC1CN(C(=O)c2ccncc2)C(C)CN1C(=O)c1ccncc1 (centres unmarked)  -1.1%
41. Cc1ccc(-n2ncc(C(=O)O)c2C2CCNCC2)c(C)c1  -1.03%
42. CC/C(=N\CCCO)C1=C(O)CC(C)(C)CC1=O  -0.996%
43. CC1(C)CC(=O)c2c(/C=C/c3ccccc3)n[nH]c2C1  -0.902%
44. CCOC(=O)c1c(C)[nH]c(C)c1S(=O)(=O)N(C)CC(=O)N1CCN(Cc2ccccc2)CC1  -0.695%
45. COc1ccc(C(O)(CC(C)C)C(CN2CCOCC2)c2ccccc2)cc1 (centres unmarked)  -0.551%
46. O=C(c1ccccc1Cl)N(Cc1cccc(Cl)c1)Cc1ccco1  -0.45%
47. Cc1cc(C)c2c3c(sc2n1)C(c1ccc(F)cc1)C(C#N)=C(N)O3 (centres unmarked)  -0.305%
48. Oc1nc(Nc2cccc3ccccc23)nc(N2CCOCC2)n1  -0.267%
49. COc1cc2c(cc1OC)CN(Cc1ccccc1C(F)(F)F)CC2  -0.261%
50. Cc1cc(O)n2nc(C)c(-c3ccc(Cl)cc3)c2n1  0.0538%
51. Cc1ccc(CNC(=O)CCn2ccc3cc(S(=O)(=O)N4CCC(C)CC4)ccc32)cc1  0.181%
52. CC1=C(C(=O)N2CCCCC2)C(c2cccc(O)c2)C2=C(O)CC(C)(C)CC2=N1 (centres unmarked)  0.219%
53. N=C(NOC(=O)c1ccc(Br)o1)c1ccncc1  0.565%
54. NC(=O)c1c(NC(=O)c2ccncc2)sc2c1CCCCC2  0.618%
55. COc1ccccc1C1CC(c2ccc(Br)cc2)=NN1c1ccc(Br)cc1 (centres unmarked)  0.716%
56. CC(C)CC(=O)Nc1cccc(NC(=O)CC(C)C)n1  0.907%
57. CC(C)CCCN1C(=O)NC(=O)/C(=C\c2ccccc2Cl)C1=O  0.98%
58. Cc1[nH]c2cc(C(=O)O)ccc2c1C  1.25%
59. Cc1ccc(S(=O)(=O)N2CCN(c3cccc(C)c3)CC2)cc1  1.34%
60. C=CCOc1c(Br)cc(/C=C2/C=C(c3ccc(OC)cc3)OC2=O)cc1OC  1.52%
61. COc1ccc(C2=C/C(=C/c3ccc(C)c(OC)c3)C(=O)O2)c(OC)c1  1.52%
62. COc1ccc(NC(=O)CN(c2ccc(Cl)c(Cl)c2)S(=O)(=O)c2ccccc2)cc1OC  1.62%
63. O=C1S/C(=C\c2cc3c(cc2Cl)OCO3)C(=O)N1Cc1ccc(F)cc1  1.81%
64. O=C(CC1Sc2ccccc2NC1=O)Nc1ccc(Cl)cc1 (centres unmarked)  1.94%
65. CC(C)C1Nc2ccc(S(N)(=O)=O)cc2C2C=CCC21 (centres unmarked)  2.05%
66. Cc1ccc2nsnc2c1S(=O)(=O)NCCc1c(C)[nH]c2ccc(F)cc12  2.1%
67. COc1cccc(-c2cnc(OC(C)(C)C)nc2OC(C)(C)C)c1  2.22%
68. COc1ccc(CCNC(=O)c2sc3nc4n(c(=O)c3c2C)CCCCC4)cc1OC  2.34%
69. CSc1ccc(-c2nc(CSCC(=O)N3CCN(Cc4ccccc4)CC3)c(C)o2)cc1  2.37%
70. C=CCNC(=O)CCCc1nnc2n(C)c(=O)c3sccc3n12  2.45%
71. O=C(Cn1ncc2c1-c1ccccc1OC2)N1CC=C(c2ccccc2)CC1  2.6%
72. O=C(CCCC(=O)Nc1cccc(Cl)c1)Nc1cccc(Cl)c1  2.68%
73. CCOc1cc(C2C(C#N)=C(N)Oc3[nH]nc(COC)c32)ccc1O (centres unmarked)  2.8%
74. O=c1oc2ccc3ccccc3c2cc1-c1nc(-c2ccncc2)no1  2.99%
75. COc1ccc2nc3sc(C(=O)NCCN4CCOCC4)cc3cc2c1  3.07%
76. COC(=O)c1ccc(CN2CCSCC2)cc1  3.15%
77. Cc1sc(NC(=O)COc2ccc(Cl)cc2Br)c(C(N)=O)c1C  3.21%
78. O=C(CN1CCOCC1)Nc1ccc(Br)cc1C(=O)c1ccccc1  3.44%
79. Cn1cc(Br)c(C(=O)Nc2nc3ccccc3n2CCN2CCOCC2)n1  3.44%
80. COCCCn1c(SCC(=O)Nc2ccc(Cl)cc2)nc2sc3c(c2c1=O)CCC3  3.46%
81. CCn1c2ccccc2c2cc(CN3CCN(C/C=C/c4ccccc4)CC3)ccc21  3.9%
82. Clc1ccc(-c2nnc(SCc3ccc(Br)cc3)o2)c(Cl)c1  4.03%
83. Cc1cccc(NC(=O)C(c2ccccc2)c2ccccc2)n1  4.22%
84. O=C(NCCN1CCC(Cc2ccccc2)CC1)C1CCCN(S(=O)(=O)c2c[nH]cn2)C1 (centres unmarked)  4.54%
85. O=C1CCCC2=C1C(c1ccc(Cl)cc1)Nc1ccc3ncccc3c12 (centres unmarked)  4.63%
86. COc1ccc(-c2cn3c(C)c(C(=O)N4CCC(C(N)=O)CC4)sc3n2)cc1  4.77%
87. Cc1ccc(C(=O)Nc2cccc(O)c2)cc1S(=O)(=O)N1CCOCC1  4.8%
88. Cn1c(=O)c2c(nc(CN3CCN(C(=O)c4ccco4)CC3)n2CCCc2ccccc2)n(C)c1=O  5.21%
89. O=C(c1cccc(F)c1)N1CCN(CCO)CC1  6.82%
90. OC(CN1CCN(C/C=C/c2ccccc2)CC1)Cn1c2ccc(Cl)cc2c2cc(Cl)ccc21 (centres unmarked)  6.96%
91. Cc1cccc(NC(=O)c2cc(-c3ccc(C)s3)nc3ccccc23)n1  7%
92. CCOc1cc(C2c3c(oc4cc(C)cc(C)c4c3=O)C(=O)N2CCCO)ccc1O (centres unmarked)  7.8%
93. Cc1ccccc1OCC(O)Cn1c(SC(C)C(=O)O)nc2c1c(=O)[nH]c(=O)n2C (centres unmarked)  8.26%
94. Cc1ccc2c(CNC3CCC(C)CC3)c(C(=O)O)[nH]c2c1 (centres unmarked)  9.05%
95. CCc1cc2c(cc3c(=O)n(CC(=O)NCCCN4CC(C)CC(C)C4)ncn32)s1 (centres unmarked)  9.22%
96. CC(C)c1ccc(/C=N/n2cnnc2)cc1  13%
97. COc1cc(-c2nc3ccccn3c2/N=C/c2sccc2C)ccc1O  15.9%
98. CCN(CC)c1ccc(NC(=O)C23CC4CC(C2)CC(n2cnc(Br)n2)(C4)C3)cc1  19.7%
